This passage reports displacement results from PubChem BioAssay AID1240 (Sanford-Burnham Center for Chemical Genomics, 2008).

In all, about 50,000 compounds went through this assay and about 800 (1.6%) showed an effect of 50% or more. This is one part of the list.

In the assay the target is Bcl-2-like protein 10 (Homo sapiens) (UniProt Q9HD36). The assay can be described thus: TR3 peptide-Bcl-B binding displacers, biochemical primary FP assay, phenotype converters (AID 1240).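 Also: 0% = Bcl-B with tracer peptide and DMSO and 100% = tracer peptide lacking Bcl-B.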 Particulars: GST-Bcl-B / FITC-TR3 peptide fluorescence polarization; stronger effect = higher value; compound at 3.75 mg/L.
Chain of UniProt Q9HD36 (Q9HD36 whole entry, looked up): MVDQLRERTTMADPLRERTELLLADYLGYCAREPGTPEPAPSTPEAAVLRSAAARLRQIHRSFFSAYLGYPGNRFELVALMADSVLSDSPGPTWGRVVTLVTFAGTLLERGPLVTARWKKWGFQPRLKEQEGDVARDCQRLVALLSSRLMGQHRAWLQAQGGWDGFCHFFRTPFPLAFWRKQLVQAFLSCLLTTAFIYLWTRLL
`O=C1/C(=C/c2cn(-c3ccccc3)nc2-c2ccco2)SC(=S)N1C1CCS(=O)(=O)C1` (stereo not given): the displacement was 11.2%. On to `COc1ccc(N/C(=N\S(=O)(=O)c2ccc(NC(C)=O)cc2)Nc2nc(C)cc(C)n2)cc1OC`, for which the displacement turned out to be 0.7%. With `Cc1ccc(/C=N/Nc2nc(N3CCOCC3)nc(N3CCOCC3)n2)c(C)c1`, the displacement was -0.8%. The value for `CC(=O)c1ccc(NC(=S)NC(NC(=O)c2cccc(C)c2)C(Cl)(Cl)Cl)cc1` (stereo not given) was 7.3%.

`COc1ccc(OC)c(NC(=O)C(=O)N/N=C/c2ccc(C(=O)O)cc2)c1`: the displacement stood at 12.3%.

On to `O=[N+]([O-])c1ccc(-n2ncnc2-c2ccc(F)cc2)cc1`, for which the displacement turned out to be 10.5%. Turning to `O=C(Nc1cccc2ccccc12)c1ccc(S(=O)(=O)N2CCCCC2)cc1`, the displacement is -8.9%. The result for `COCCCNC(=O)C(=O)Nc1cc(C)ccc1OC` reads -4.5%; that for `CC1=C(C(=O)OCCOc2ccccc2)Sc2ccccc2N1`, -2%; that for `COc1cc(OC)c(OC)cc1/C=N/NC(=O)c1cc(-c2ccc(Cl)cc2)n[nH]1`, -2.6%. For `O=C(N/C(=C/c1ccco1)C(=O)N1CCCCC1)c1ccc(Cl)cc1`, the displacement came out at 22.6%. Take `O=[N+]([O-])c1ccc(S(=O)(=O)Nc2cc(Cl)cc(Cl)c2)cc1`: the displacement worked out at 18.6%.

For the compound `Cc1cc(C(=O)Nc2sc(C(=O)OC(C)C)c(C)c2C(N)=O)ccc1[N+](=O)[O-]`, the displacement turned out to be 31.5%. The result for `Cc1cc(NC(=O)c2cc3ccccc3oc2=O)ccc1NC(=O)c1ccco1` reads 14%; that for `O=C1c2cccc3cccc(c23)C(=O)N1/N=C/c1ccc(O)cc1`, 13.3%. Regarding `COc1ccc(S(=O)(=O)N/N=C/c2ccc(OCCN3CCOCC3)c(OC)c2)cc1`, the displacement was 4.4%. The result for `COC(=O)C1=C(C)N(C)C(=O)NC1c1cc(Br)c(O)c(OC)c1` (stereo not given) reads -1.5%; that for `Br/C(=C\c1ccccc1)C1Nc2cccc3cccc(c23)N1`, 15.4%; that for `CC(=O)N(C)c1ccc(NC(=O)COc2ccc(Cl)cc2)cc1`, 10.2%. The value for `C/C(=N\N1CCN(Cc2ccc(Cl)cc2)CC1)c1ccccc1O` was -6.7%.

On to `CCOC(=O)C1=C(C)N=c2s/c(=C\c3cc(OC)ccc3OC)c(=O)n2C1c1ccccc1Cl` (stereo not given), for which the displacement turned out to be 18.2%. As for `CCOc1ccc(/C=C2/SC(=S)NC2=O)cc1Cl`, the displacement is 11.7%. The result for `CC(C)Oc1ccc(C2CC(=O)N(C)C2=O)cc1` (stereo not given) reads 1.8%; that for `CCOC(=O)c1cc2nc(-c3ccccc3)cc(C)n2n1`, 0.7%. The result for `O=C(NCc1ccncc1)c1cccs1` reads -4.7%; that for `CCOc1ccccc1NC(=O)CC1Sc2ccc(C(F)(F)F)cc2NC1=O` (stereo not given), 0.8%; that for `Cc1cccc(OCC(=O)Nc2ccc(C)cc2[N+](=O)[O-])c1`, -5.8%. For `c1ccc(-n2ncnc2-c2ccc3c(c2)OCO3)cc1`, the displacement came out at 4.4%. The result for `Cc1ccc(N=Cc2ccccc2OCc2ccccc2)cc1C` reads -7.8%. Turning to `N/C(=N\OC(=O)Cc1ccc(-c2ccccc2)cc1)c1ccccc1`, the displacement is -4.8%. For the compound `O=C(Nc1ccc2oc(-c3cccnc3)nc2c1)c1ccc(Br)o1`, the displacement is 15.6%. As for `Cc1cccnc1N1C(=O)C2C3c4ccccc4C(C)(c4ccccc43)C2C1=O` (stereo not given), the displacement was -3%. Consider `CCC(C)c1ccc(OCCOc2ccc(Br)cc2/C=N/n2cnnc2)cc1` (stereo not given), for which the displacement was -13%.

As for `CCOc1ccccc1N(CC(=O)NC1CCCC1)S(=O)(=O)c1ccccc1`, the displacement came out at 3.5%. The result for `CCN=C(NCC)SC1CC(=O)N(c2ccc(Cl)c(Cl)c2)C1=O` (stereo not given) reads -5%. `O=C(c1ccc(Cl)cc1)N1CCN(c2ccc([N+](=O)[O-])c3ncccc23)CC1`: the displacement amounted to 4.9%. For `Cc1c(N2C(=O)/C(=C/c3c(F)cccc3Cl)SC2=S)c(=O)n(-c2ccccc2)n1C`, the displacement turned out to be 5.3%. As to `CCOC(=O)c1c(NC(=O)CC2Sc3ccc(C(F)(F)F)cc3NC2=O)sc(C)c1C` (stereo not given), the displacement was 12.4%.

`COc1ccc2c(Cl)c(C(=O)NCc3ccc4c(c3)OCO4)sc2c1`: the displacement is 8.8%. Consider `Cc1ccc(O)c(NC(=O)CN2C(=O)c3ccccc3C2=O)c1`, for which the displacement was -7.3%.

As for `Cc1csc(-c2cc3ccc(OCc4c(F)c(F)c(F)c(F)c4F)cc3oc2=O)n1`, the displacement stood at 6.9%.

For the compound `CCN(CC)c1ccc(NC(=O)c2ccco2)cc1`, the displacement worked out at 5.2%. The result for `O=C(Nc1nc(-c2ccc(F)cc2F)cs1)c1cccc(F)c1F` reads -0.6%; that for `Cc1ccc(N(CC(=O)O)S(=O)(=O)c2ccccc2)c(C)c1`, -3.4%. `Cc1ccc(C(=O)NCc2ccncc2)cc1`: the displacement is 2.5%. The value for `CC(C)c1ccccc1OCCCCN1CCOCC1` was 4.4%.

With `CCC(=O)c1ccc(N2CCN(C(=O)c3ccc(F)cc3F)CC2)c(F)c1`, the displacement is -11.8%. The value for `CC(C)(C)NC(=O)c1cc2c(ccc3ccccc32)oc1=O` was -5.5%. Take `CC(C)OC(=O)c1c(-c2ccccc2)csc1NC(=O)c1c(F)cccc1F`: the displacement was -2.7%. The value for `CCNc1nc(NCC)nc(Oc2ccc(C(=O)OC)cc2)n1` was -6.4%; that for `Clc1ccc(Cn2nnc(-c3ccccc3Cl)n2)c(Cl)c1` was -8.4%; that for `O=C(O)C(C(=O)O)C1c2ccccc2Oc2ccccc21` was 1.9%.

For the compound `O=C(/C=C/c1ccc(-c2ccccc2Br)o1)c1ccc(Cl)cc1`, the displacement worked out at 10.4%. The value for `O=[N+]([O-])c1ccc(NCCCN2CCOCC2)c(C(F)(F)F)c1` was -1.6%; that for `O=C(O)CCCCCN1C(=O)C(=O)/C(=C(/O)c2ccc(Cl)cc2)C1c1ccccc1` (stereo not given) was -0.4%; that for `CCOc1cc(/C=C(/C(=O)c2ccc(C)cc2)c2nc3ccccc3o2)ccc1O` was 12.2%. In the case of `Cc1ccc(OCCNC(=O)c2cccc3ccccc23)cc1C`, the displacement stood at 13.3%.

With `Cc1nnc(N/N=C/c2ccc(Br)cc2)[nH]c1=O`, the displacement was -3.3%. Consider `CCN(CC)CC#CCC(C(=O)c1ccccc1)C(=O)C(C)(C)OC` (stereo not given), for which the displacement turned out to be 0%. In the case of `COc1ccc(C(=S)N2CCN(c3cccc(Cl)c3)CC2)cc1`, the displacement was 19.1%. With `CC(=O)c1cccc(NC(=O)CSc2nncn2C)c1`, the displacement came to 9.5%. The result for `CCc1ccccc1N(CC(=O)O)S(C)(=O)=O` reads 4.5%; that for `COc1ccc(C2Nc3ccccc3C(=O)N2Cc2ccco2)cc1COc1ccccc1F` (stereo not given), -12.8%. `Cc1cccc(NC(=O)C(=O)NCCc2ccc(F)cc2)c1C`: the displacement was determined as 2.1%. With `CCCNC(=O)c1c(-c2ccccc2)noc1C`, the displacement turned out to be 4.4%. Consider `O=C(/C=C/c1ccc(Cl)cc1)c1ccc(NC(=O)c2cccnc2)cc1`, for which the displacement worked out at 9.8%. The value for `O=C(Nc1ccccc1C(=O)N1CCCC1)c1ccccc1` was 15%; that for `COC(=O)c1c(NC(=O)CCC2CCCC2)sc2c1CCC2` was -4%; that for `CCOc1ccc(N2C(=O)CC(Cc3cc(C)cc(C)c3)C2=O)cc1` (stereo not given) was 13.2%.

`Fc1ccc(NC(=S)Nc2ccc(Br)c(Cl)c2)cc1`: the displacement was -4.6%.
